Patent publication US9238631B2, “Radiolabeled amino acids for diagnostic imaging” (PIRAMAL IMAGING SA, priority 2011, dated 2016)
This continues a long series; more values of the same kind are listed elsewhere.

Test system: NCI-H460 tumor
Test: In vivo biodistribution in NCI-H460 tumor bearing mice
Description: (§1) To test the pharmacokinetic properties of compounds from the present invention, all F18-labeled compounds were examined by biodistribution studies in NCI-H460 tumor bearing mice. Female NMRI (nu/nu) mice were inoculated with 5×10^6 NCI-H460 tumor cells 8 to 10 days before the biodistribution studies. 185 kBq of activity of the fluorinated compound was injected and at least n=3 mice were used for every time point. After injection of the F18-labeled compound, mice were sacrificed at defined time-points. All organs were removed and radioactivity was determined using a γ-counter.
To compare the tumor uptake and retention of radioactivity of different ^18F-labeled derivatives from the present invention, biodistribution studies were performed in NCI-H460 tumor bearing NMRI (nu/nu) mice as described above.
To compare the kidney clearance of several ^18F-labeled derivatives from the present invention, biodistribution studies were performed in NCI-H460 tumor bearing female NMRI (nu/nu) mice as described above. […] After 2 h p.i., less than 1% ID/g can be found in the kidneys.
For comparison of pancreas uptake and clearance of several ^18F-labeled derivatives from the present invention, biodistribution studies were performed in NCI-H460 tumor bearing NMRI (nu/nu) mice as described above. […] After 2 h p.i., less than 2% ID/g can be found in the pancreas.
as §1, with “and” for “for every time point. After injection of the F18-labeled compound, mice were”, “time-points raning from 15 min pi up to 2 h p.i.” for “time-points.”, “γ-counter. […] High tumor uptake values of >3% ID/g were obtained with various compounds from the present invention.” for “γ-counter.”

SMILES: N[C@@H](CCC(Cc1ccc(OCC[18F])cc1)C(=O)O)C(=O)O (stereo partly drawn) [[^18F]-12] [(2S)-2-Amino-5-[4-(2-[^18F]fluoroethoxy)benzyl]hexanedioic acid]
- Kidney (% ID/g at 1 h p.i.) (1 h p.i.): 2.2 ± 0.3 % ID/g
- Liver (% ID/g at 1 h p.i.) (1 h p.i.): 2.2 ± 0.3 % ID/g
- Pancreas (% ID/g at 1 h p.i.) (1 h p.i.): 3.6 ± 0.6 % ID/g
- Tumor (% ID/g at 1 h p.i.) (1 h p.i.): 6.5 ± 1.0 % ID/g
- Kidney (% Dosis/g) (timepoint 0.25 h): 18.02 % Dosis/g
- Lung (% Dosis/g) (timepoint 0.25 h): 1.45 % Dosis/g
- Kidney (% Dosis/g) (timepoint 0.5 h): 8.61 % Dosis/g
- Lung (% Dosis/g) (timepoint 0.5 h): 0.91 % Dosis/g
- Kidney (% Dosis/g) (timepoint 1.0 h): 2.11 % Dosis/g
- Lung (% Dosis/g) (timepoint 1.0 h): 0.36 % Dosis/g
- Kidney (% Dosis/g) (timepoint 2.0 h): 0.64 % Dosis/g
- Lung (% Dosis/g) (timepoint 2.0 h): 0.26 % Dosis/g
- Kidney (% Dosis/g) (timepoint 4.0 h): 0.20 % Dosis/g
- Liver (% Dosis/g) (timepoint 4.0 h): 0.33 % Dosis/g
- Lung (% Dosis/g) (timepoint 4.0 h): 0.13 % Dosis/g
